The experiment addresses Flag-RIPK3 (in MEFs) (not stated (human or mouse cDNA cloned)), Q9QZL0. In words: co-IP; MEF-Flag-RIPK3 and MEF (Csnk1g2−/−)-Flag-RIPK3 cells treated with the indicated stimuli for 6 hr; extracts precipitated with anti-Flag antibody, western blot for RIPK1 and CSNK1G2. The settings on record: remark: other sources report otherwise. Background: A western blot detects proteins with antibodies after separation by electrophoresis.

No constants are given. Whether binding was seen depends on the method and setting. Binding seen in cells or lysates may run through a third protein. Some binding calls cover weakened binding; strength is not graded here.

B1: RIPK1 (endogenous, MEF), Q60855 1-656 (enzyme)
chain: MQPDMSLDNIKMASSDLLEKTDLDSGGFGKVSLCYHRSHGFVILKKVYTGPNRAEYNEVLLEEGKMMHRLRHSRVVKLLGIIIEEGNYSLVMEYMEKGNLMHVLKTQIDVPLSLKGRIIVEAIEGMCYLHDKGVIHKDLKPENILVDRDFHIKIADLGVASFKTWSKLTKEKDNKQKEVSSTTKKNNGGTLYYMAPEHLNDINAKPTEKSDVYSFGIVLWAIFAKKEPYENVICTEQFVICIKSGNRPNVEEILEYCPREIISLMERCWQAIPEDRPTFLGIEEEFRPFYLSHFEEYVEEDVASLKKEYPDQSPVLQRMFSLQHDCVPLPPSRSNSEQPGSLHSSQGLQMGPVEESWFSSSPEYPQDENDRSVQAKLQEEASYHAFGIFAEKQTKPQPRQNEAYNREEERKRRVSHDPFAQQRARENIKSAGARGHSDPSTTSRGIAVQQLSWPATQTVWNNGLYNQHGFGTTGTGVWYPPNLSQMYSTYKTPVPETNIPGSTPTMPYFSGPVADDLIKYTIFNSSGIQIGNHNYMDVGLNSQPPNNTCKEESTSRHQAIFDNTTSLTDEHLNPIRENLGRQWKNCARKLGFTESQIDEIDHDYERDGLKEKVYQMLQKWLMREGTKGATVGKLAQALHQCCRIDLLNHLIRASQS
As for B1, the binding entry is “binds”.

The values are drawn from paper PMC7673785.
